According to PubChem BioAssay AID1963576 (National Center for Advancing Translational Sciences (NCATS), 2024):
The whole screen tested about 46,000 compounds, of which about 60 (0.1%) were called active. Another 3% or so got no clear call; they are omitted. Calls follow the shape of the dose curve; as a rule, active = well fitted inhibition curve with a large enough effect; inconclusive = small, poorly fitted or top-dose-only effect; inactive = no such curve, though single readings can be large or run the other way. This is one part of the list.

assay: Primary qHTS assay for Inhibitors of ovarian cancer metastasis using an organotypic tumor microenvironment (TME) model.; also: nearly all actives have a fitted effect of over 65% in size;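 as to activity change, negative = inhibition: plate controls were DMSO wells for no effect and tomatine positive control wells for full effect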; conditions: SKOV3ip1-GFP adhesion/invasion on 3D omental model, fluorescence; series mostly up to 45.8 µM; activity change, negative = inhibition: at the top concentration
In short: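 Adhesion/invasion was scored as fixed GFP-labeled SKOV3ip1 cell counts (488/509 nm), normalized to DMSO and tomatine controls. Cancer cells in serum-free medium, with four compound doses (0.36-46 umol/L), sat 2 hr at RT then 16 hr at 37 C on a 48 hr fibroblast/mesothelial/ECM culture.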

Activity change, negative = inhibition, inactive:
Cc1cc(C)n(C(C)CC(=O)Nc2cccc(C#N)c2)n1 (stereo not given) 0.887%, COc1ccc(-c2c(C)nn3c(-c4ccccc4)cc(C)nc23)cc1OC 8.69%, O=C(Cn1ncc2c3ccccc3n(Cc3cccc(Cl)c3)c2c1=O)NCCCc1ccccc1 -0.667%, Cc1cccc(C)c1NC(=O)Cn1cc(C(=O)c2ccco2)c2ccccc21 6.06%, Cc1cc(O)c(C(c2ccccc2)N2CCN(c3ccccc3)CC2)c(=O)n1Cc1ccco1 (stereo not given) -5.75%, Cc1ccc2oc(-c3ccc(Cl)cc3)c(O)c(=O)c2c1 2.11%, CC1CCN(S(=O)(=O)c2ccc3c(ccn3CC(=O)NCc3ccccc3F)c2)CC1 -21.8%, COc1cccc(CNC(=O)c2ccc3c(c2)nc2n3CCOC2)c1OC 17.5%, Cc1cccc(-n2nnc(-c3nc(-c4ccccc4)no3)c2N)c1C 2.51%, Cc1ccc(C(=O)Nc2nnc(S(=O)(=O)N(C)Cc3ccco3)s2)cc1 -7.78%, CCn1cc(C(=O)NCCc2ccc(OC)c(OC)c2)c(=O)c2cc(S(=O)(=O)N3CCOCC3)ccc21 -8.83%, Cc1cc(-c2ncc(CC(=O)Nc3ccc(-c4cnccn4)cn3)cc2C)ccn1 -0.502%, Cc1ccc(-c2noc(C(C)NC(=O)c3ccco3)n2)cc1 (stereo not given) -5.74%, COc1ccc(S(=O)(=O)c2c(SC)nn(CC(=O)Nc3ccc(C)c(Cl)c3)c2N)cc1 5.93%, O=C(Nc1cccc(C(F)(F)F)c1)c1cc(-c2ccc(Cl)cc2)on1 16.6%, Cc1cnc(C(=O)NCCc2ccc(S(=O)(=O)NC(=O)NC3CCCCC3)cc2)cn1 -12.4%, CCc1nn2c(=O)cc(COC(=O)c3cccc(NC(=O)c4ccccc4C)c3)nc2s1 0.972%, COc1ccc2c(CNC3CCCC3)c(C(=O)O)n(Cc3ccccc3C)c2c1 11.5%, CC(C)(C)C1CCc2nc(NC(=O)COc3ccccc3[N+](=O)[O-])sc2C1 (stereo not given) 3.63%, COCCCNC(=O)CSc1nc2cc3c(cc2c(=O)n1CCCCCC(=O)NCCc1ccc(OC)c(OC)c1)OCO3 6.39%, O=C(Nc1cc(C(F)(F)F)ccc1Cl)c1noc2c1CCCCC2 -13.9%, O=C(NCc1ccc(F)cc1)c1ccc2c(c1)N(Cc1c(F)cccc1Cl)C(=O)CS2 29.4%, CC1=C(c2ccc(C)cc2)S(=O)(=O)N(Cc2ccc(C(=O)NCc3ccccc3)cc2)C1=O 9.97%, COc1cccc(-n2ccn(CC(=O)Nc3ccccc3F)c(=O)c2=O)c1 3.58%, O=C(Nc1ccc(F)c(F)c1)c1cc(S(=O)(=O)N2CCc3ccccc32)ccc1F 2.37%, COc1ccc2c(c1)c(CC(=O)Nc1cccc(F)c1C)c(C)n2C(=O)c1ccc(Cl)cc1 0.0208%, CCc1ccccc1NC(=O)Cn1cc(C(=O)c2ccc(Cl)cc2)c(=O)c2ccc(C)nc21 -6.82%, COc1ccc(C2=C(C)C(N3CCC(C(=O)NCc4ccco4)CC3)=NS2(=O)=O)cc1 8.44%, Cc1ccc(CNS(=O)(=O)c2cc(C(=O)Nc3ccc(C(C)C)cc3)ccc2F)cc1 -19.3%, COc1ccc(-c2cc(C(=O)NCCc3ccc(Cl)cc3)[nH]n2)cc1 -7.45%, Cc1cccc(N2CCN(C(=O)COCc3cc(-c4ccc5c(c4)OCO5)on3)CC2)c1C 16.6%, CCOc1ccc(NC(=O)N2CCC(CN3CCC(C)CC3)CC2)cc1 7.07%, C[C@H]1[C@H](NC(=O)C(=NOC(C)(C)C(=O)O)c2csc(N)n2)C(=O)N1S(=O)(=O)O 9.91%, COc1cccc(-c2ccnc3c(-c4ccccc4)c(C)nn23)c1 7.81%, CCOC(=O)c1[nH]c2ccccc2c1NC(=O)c1cc(OC)cc(OC)c1 0.308%, Cc1ccc(CNc2nc3c(c(=O)n(C)c(=O)n3C)n2Cc2ccc(Cl)cc2)cc1 22.3%, Cc1ccc(CN(C(=O)c2ccc(F)cc2)c2ccccn2)o1 8.92%, CCn1c(=O)n(-c2ccc(F)c(Cl)c2)c(=O)c2sc3ccccc3c21 -9.23%, CN(C)c1ccc(NC(=O)CSc2nc(-c3ccco3)cc(C(F)(F)F)n2)cc1 17.2%, Cc1ccccc1C(=O)Oc1cc(-c2ccc3c(c2)OCO3)cc(=O)c2c(C)oc(C)c12 -5.66%, O=C(NCc1ccc(F)cc1)C1CCN(S(=O)(=O)c2ccc3c(c2)CCCN3C(=O)C2CCC2)CC1 2.14%, COc1ccccc1N1CCN(S(=O)(=O)c2c(C)sc3ncn(CC(=O)Nc4ccc(C(C)C)cc4)c(=O)c23)CC1 0.487%, Cc1ccc(N2CCN(C(=O)c3ccc(Nc4nc5ccccc5n5nnnc45)cc3)CC2)c(C)c1 1.06%, CCOc1cc(CNC(=O)c2ccc3c(c2)nc2n3CCCCC2)ccc1OC -1.62%, Cc1ccc(Cl)cc1NC(=O)c1cc2c(=O)n3cccc(C)c3nc2n1C -6.97%, O=C(NCc1ccc(F)cc1)c1cnc(N2CCOCC2)c2ccccc12 0.646%, Cc1ccc(C2=NC(c3ccc(F)cc3)=Nc3ccc(C)cc3N2)cc1 8.5%, Cc1cccc(Cn2c(=O)n(CCCCC(=O)NCc3ccc4c(c3)OCO4)c(=O)c3ccccc32)c1 17%, Cc1ccc(S(=O)(=O)N2CCN(Cc3ccccc3)CC2)c(C)c1NS(C)(=O)=O 0.594%, COc1ccc(CCNC(=O)Cn2c(=O)n(-c3ccc(OC)c(OC)c3)c(=O)c3ccccc32)cc1OC -1.77%, Cc1ccc(NC(=O)/C(C#N)=C/c2ccccc2Cl)cc1C -9.4%, COc1ccccc1OCCCCn1c(C2CC(=O)N(c3ccccc3Cl)C2)nc2ccccc21 (stereo not given) -16.4%, CC(=O)c1cccc(NC(=O)c2sc(-n3nc(C)c(CCC(C)C)c3C)nc2C)c1 7.44%, Cc1nc(-c2ccc(S(=O)(=O)N3CCN(c4cccc(Cl)c4)CC3)cc2)co1 -27.4%, COc1cc(NC(=O)Cn2c(=O)n(CC(=O)NCCc3ccc(OC)c(OC)c3)c(=O)c3sccc32)cc(OC)c1 -8.54%, CN(C)c1nc(Cc2ccc(NC(=O)c3ccc4ccccc4c3)cc2)nc(Cl)c1CC(=O)O -21.1%, COc1ccc(N2CC(NC(=O)Cc3cccs3)CC2=O)cc1 (stereo not given) -11.9%, COc1ccc(-n2nnnc2C2CCN(S(=O)(=O)c3ccc(F)cc3Cl)CC2)cc1 -22.6%, COc1cccc(Nc2sc(C(=O)c3ccc4c(c3)OCO4)c(N)c2S(=O)(=O)c2ccccc2)c1 -4.22%, CSc1ccc(CNC(=O)Cc2csc3ccccc23)cc1 2.05%, CC(=O)Nc1ccc(S(=O)(=O)NCC2CCC(C(=O)NCc3ccccc3Cl)CC2)cc1 (stereo not given) 33.4%, COc1ccc(C2=NC3(CCCCCC3)N(CC(=O)Nc3ccc(C)c(C)c3)C2=O)cc1 -8.07%, COc1ccc(CNC(=O)CN(c2cc(C(F)(F)F)ccc2Cl)S(C)(=O)=O)cc1 15.2%, CCn1c(C)c(C)c2cc(C(=O)NCc3ccc(N(C)C)cc3)ccc21 -1.89%, Cc1ccc2ncc(S(=O)(=O)c3ccccc3)c(N3CCCCC3C)c2c1 (stereo not given) -4.74%, Cc1ccccc1Nc1sc(C(=O)c2ccc(F)cc2)c(N)c1C(=O)NCCc1ccccc1 1.09%, COc1ccc(Cl)cc1NC(=O)Cn1ncc2c3ccccc3n(Cc3ccccc3)c2c1=O -5.85%, Cc1ccc(C(=O)c2oc3ccccc3c2NC(=O)c2cc(-c3ccc(Cl)cc3)on2)cc1 -1.07%, CCN(CC)S(=O)(=O)c1ccc2c(c1)nc(CN(C)C(=O)Nc1ccc(F)cc1)n2C 18%, Fc1ccc(Nc2nc(SCc3cccc(Cl)c3)nc3ccccc23)cc1 -2.89%, COc1ccc(NC(=O)c2nnn(CC(=O)Nc3c(C)cc(C)cc3C)c2N)cc1OC 5.21%, Cc1ccc(C)c(CN2C(=O)c3ccccc3S(=O)(=O)c3ccc(C(=O)Nc4cc(F)ccc4F)cc32)c1 -12.5%, COc1ccc(CNC(=O)CSc2n[nH]c(-c3ccc(F)cc3)n2)cc1 9.47%

outcome, inactive:
CCOc1ccc(-c2nn(-c3ccc(F)cc3)c3c2cnc2ccc(F)cc23)cc1, Cc1ccc(C)c(NC(=O)CN2CCN(C3CCCCC3)C(=O)C2=O)c1, CCc1nc2c(cnn2-c2ccc(C)cc2)c(=O)n1-c1ccc(C)cc1, Cc1ccccc1NC(=O)CN1C(=O)C2(SCC(=O)N2c2ccc(F)cc2)c2ccccc21 (stereo not given), Cc1cc(C)c2c(=O)cc(C(=O)Nc3sc4c(c3C#N)CCCC4)oc2c1, Cc1ccc(CNC(=O)CSCc2nc(-c3ccc(Cl)cc3)oc2C)cc1, Cc1ccccc1-c1nc2c3c(-c4ccccc4)c(-c4ccccc4)oc3ncn2n1, COC(=O)c1ccccc1NC(=O)COCc1cc(-c2cccs2)on1, O=C(COc1ccccc1Cl)N(Cc1ccco1)Cc1ccco1, COc1ccc(-n2c(=O)c3c4c(sc3n(CC(=O)N3CCCCC3C)c2=O)CCC4)c(OC)c1 (stereo not given), Cc1ccc(S(=O)(=O)c2cnc(SCC(=O)Nc3ccccc3C(F)(F)F)[nH]c2=O)cc1C, Cc1cc(C)cc(NC(=O)C2CCCN(c3cnccn3)C2)c1 (stereo not given), CCSc1nnc2c(n1)OC(c1ccc(OC)cc1OC)N(C(C)=O)c1ccccc1-2 (stereo not given), COc1ccc(Cl)cc1NC(=O)CSc1nc2c([nH]c3ccccc32)c(=O)n1-c1ccccc1, O=C(NC1CCCC1)c1cnn(-c2ccc(F)cc2F)c1C1CCNCC1, CN(Cc1ccccc1)Cc1c(O)ccc2c(=O)c(-c3ccccc3)c(C(F)(F)F)oc12, CCN(C(=O)c1sc2cc(OC)ccc2c1Cl)c1ccccc1, Cc1ccc(NC(=O)CN2c3ccccc3S(=O)(=O)c3ccccc32)cc1F, CCN(CC)CCNC(=O)CN1C(=O)c2cccnc2Oc2ccc(C)cc21, CC(=O)NCCNc1nc2c(-c3cccc(C)c3)nnn2c2ccc(Cl)cc12, Cc1ccc(OCCCCn2cnc3ccccc32)cc1, COc1ccc(CNC(=O)C(CCSC)NS(=O)(=O)c2ccc3c(c2)oc(=O)n3C)cc1 (stereo not given)
